# Assay results published in the supplement of paper PMC8728848.
# The other results are listed elsewhere or left out.
# B1: Gal-9-hFc (Mus musculus), O08573-2 (protein)
# chain: MALFSAQSPYINPIIPFTGPIQGGLQEGLQVTLQGTTKSFAQRFVVNFQNSFNGNDIAFHFNPRFEEGGYVVCNTKQNGQWGPEERKMQMPFQKGMPFELCFLVQRSEFKVMVNKKFFVQYQHRVPYHLVDTIAVSGCLKLSFITFQTQNFRPAHQAPMAQTTIHMVHSTPGQMFSTPGIPPVVYPTPAYTIPFYTPIPNGLYPSKSIMISGNVLPDATRFHINLRCGGDIAFHLNPRFNENAVVRNTQINNSWGQEERSLLGRMPFSRGQSFSVWIICEGHCFKVAVNGQHMCEYYHRLKNLQDINTLEVAGDIQLTHVQT
# Tests used:
# Assay in all cases: glycan array binding signal (z-score within array); higher = stronger binding
# Conditions in all cases: glycan notation: IUPAC condensed, linker removed
# [1] = target: Gal(b1-4)GlcNAc(b1-3)Gal(b1-3)GlcNAc
# Procedure, shortened: (§1)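 The Consortium for Functional Glycomics database supplied 3228 glycan arrays, of which those lacking an available protein sequence were dropped. The binding signal, a within-array Z-score, was averaged across arrays of the same protein sequence and across linkers. Negative scores can be read as non-binding.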
# [2] = target: Gal(b1-4)GlcNAc(b1-3)Gal(b1-4)Glc
# Procedure, shortened: as §1
# [3] = target: Gal(b1-4)GlcNAc(b1-3)Gal(b1-4)GlcNAc
# Procedure, shortened: as §1
# [4] = target: Gal(b1-4)GlcNAc(b1-3)Gal(b1-4)GlcNAc(b1-2)Man(a1-3)[Gal(b1-4)GlcNAc(b1-3)Gal(b1-4)GlcNAc(b1-2)Man(a1-6)]Man(b1-4)GlcNAc(b1-4)GlcNAc
# Procedure, shortened: as §1
# [5] = target: Gal(b1-4)GlcNAc(b1-3)Gal(b1-4)GlcNAc(b1-2)Man(a1-3)[Gal(b1-4)GlcNAc(b1-3)Gal(b1-4)GlcNAc(b1-2)Man(a1-6)]Man(b1-4)GlcNAc(b1-4)[Fuc(a1-6)]GlcNAc
# Procedure, shortened: as §1
# [6] = target: Gal(b1-4)GlcNAc(b1-3)Gal(b1-4)GlcNAc(b1-2)[Gal(b1-4)GlcNAc(b1-3)Gal(b1-4)GlcNAc(b1-6)]Man(a1-6)[Gal(b1-4)GlcNAc(b1-3)Gal(b1-4)GlcNAc(b1-2)Man(a1-3)]Man(b1-4)GlcNAc(b1-4)GlcNAc
# Procedure, shortened: as §1
# [7] = target: Gal(b1-4)GlcNAc(b1-3)Gal(b1-4)GlcNAc(b1-2)[Gal(b1-4)GlcNAc(b1-3)Gal(b1-4)GlcNAc(b1-6)]Man(a1-6)[Gal(b1-4)GlcNAc(b1-3)Gal(b1-4)GlcNAc(b1-2)Man(a1-3)]Man(b1-4)GlcNAc(b1-4)[Fuc(a1-6)]GlcNAc
# Procedure, shortened: as §1
# [8] = target: Gal(b1-4)GlcNAc(b1-3)Gal(b1-4)GlcNAc(b1-3)Gal(b1-4)GlcNAc
# Procedure, shortened: as §1
# [9] = target: Gal(b1-4)GlcNAc(b1-3)Gal(b1-4)GlcNAc(b1-3)Gal(b1-4)GlcNAc(b1-2)Man(a1-3)[Gal(b1-4)GlcNAc(b1-3)Gal(b1-4)GlcNAc(b1-3)Gal(b1-4)GlcNAc(b1-2)Man(a1-6)]Man(b1-4)GlcNAc(b1-4)GlcNAc
# Procedure, shortened: as §1
# [10] = target: Gal(b1-4)GlcNAc(b1-3)Gal(b1-4)GlcNAc(b1-3)Gal(b1-4)GlcNAc(b1-2)Man(a1-3)[Gal(b1-4)GlcNAc(b1-3)Gal(b1-4)GlcNAc(b1-3)Gal(b1-4)GlcNAc(b1-2)Man(a1-6)]Man(b1-4)GlcNAc(b1-4)[Fuc(a1-6)]GlcNAc
# Procedure, shortened: as §1
# [11] = target: Gal(b1-4)GlcNAc(b1-3)Gal(b1-4)GlcNAc(b1-3)Gal(b1-4)GlcNAc(b1-2)[Gal(b1-4)GlcNAc(b1-3)Gal(b1-4)GlcNAc(b1-3)Gal(b1-4)GlcNAc(b1-6)]Man(a1-6)[Gal(b1-4)GlcNAc(b1-3)Gal(b1-4)GlcNAc(b1-3)Gal(b1-4)GlcNAc(b1-2)Man(a1-3)]Man(b1-4)GlcNAc(b1-4)[Fuc(a1-6)]GlcNAc
# Procedure, shortened: as §1
# [12] = target: Gal(b1-4)GlcNAc(b1-3)Gal(b1-4)GlcNAc(b1-3)Gal(b1-4)GlcNAc(b1-3)Gal(b1-4)GlcNAc(b1-2)Man(a1-3)[Gal(b1-4)GlcNAc(b1-3)Gal(b1-4)GlcNAc(b1-3)Gal(b1-4)GlcNAc(b1-3)Gal(b1-4)GlcNAc(b1-2)Man(a1-6)]Man(b1-4)GlcNAc(b1-4)GlcNAc
# Procedure, shortened: as §1
# [13] = target: Gal(b1-4)GlcNAc(b1-3)Gal(b1-4)GlcNAc(b1-3)Gal(b1-4)GlcNAc(b1-3)Gal(b1-4)GlcNAc(b1-2)Man(a1-3)[Gal(b1-4)GlcNAc(b1-3)Gal(b1-4)GlcNAc(b1-3)Gal(b1-4)GlcNAc(b1-3)Gal(b1-4)GlcNAc(b1-2)Man(a1-6)]Man(b1-4)GlcNAc(b1-4)[Fuc(a1-6)]GlcNAc
# Procedure, shortened: as §1
# [14] = target: Gal(b1-4)GlcNAc(b1-3)Gal(b1-4)GlcNAc(b1-3)Gal(b1-4)GlcNAc(b1-3)Gal(b1-4)GlcNAc(b1-2)[Gal(b1-4)GlcNAc(b1-3)Gal(b1-4)GlcNAc(b1-3)Gal(b1-4)GlcNAc(b1-3)Gal(b1-4)GlcNAc(b1-6)]Man(a1-6)[Gal(b1-4)GlcNAc(b1-3)Gal(b1-4)GlcNAc(b1-3)Gal(b1-4)GlcNAc(b1-3)Gal(b1-4)GlcNAc(b1-2)Man(a1-3)]Man(b1-4)GlcNAc(b1-4)[Fuc(a1-6)]GlcNAc
# Procedure, shortened: as §1
# [15] = target: Gal(b1-4)GlcNAc(b1-3)Gal(b1-4)GlcNAc(b1-3)Gal(b1-4)GlcNAc(b1-3)Gal(b1-4)GlcNAc(b1-3)Gal(b1-4)GlcNAc(b1-2)Man(a1-3)[Gal(b1-4)GlcNAc(b1-3)Gal(b1-4)GlcNAc(b1-3)Gal(b1-4)GlcNAc(b1-3)Gal(b1-4)GlcNAc(b1-3)Gal(b1-4)GlcNAc(b1-2)Man(a1-6)]Man(b1-4)GlcNAc(b1-4)GlcNAc
# Procedure, shortened: as §1
# [16] = target: Gal(b1-4)GlcNAc(b1-3)Gal(b1-4)GlcNAc(b1-3)Gal(b1-4)GlcNAc(b1-3)Gal(b1-4)GlcNAc(b1-3)Gal(b1-4)GlcNAc(b1-2)Man(a1-3)[Gal(b1-4)GlcNAc(b1-3)Gal(b1-4)GlcNAc(b1-3)Gal(b1-4)GlcNAc(b1-3)Gal(b1-4)GlcNAc(b1-3)Gal(b1-4)GlcNAc(b1-2)Man(a1-6)]Man(b1-4)GlcNAc(b1-4)[Fuc(a1-6)]GlcNAc
# Procedure, shortened: as §1
# [17] = target: Gal(b1-4)GlcNAc(b1-3)Gal(b1-4)GlcNAc(b1-3)Gal(b1-4)GlcNAc(b1-3)Gal(b1-4)GlcNAc(b1-3)Gal(b1-4)GlcNAc(b1-2)[Gal(b1-4)GlcNAc(b1-3)Gal(b1-4)GlcNAc(b1-3)Gal(b1-4)GlcNAc(b1-3)Gal(b1-4)GlcNAc(b1-3)Gal(b1-4)GlcNAc(b1-6)]Man(a1-6)[Gal(b1-4)GlcNAc(b1-3)Gal(b1-4)GlcNAc(b1-3)Gal(b1-4)GlcNAc(b1-3)Gal(b1-4)GlcNAc(b1-3)Gal(b1-4)GlcNAc(b1-2)Man(a1-3)]Man(b1-4)GlcNAc(b1-4)[Fuc(a1-6)]GlcNAc
# Procedure, shortened: as §1
# [18] = target: Gal(b1-4)GlcNAc(b1-3)Gal(b1-4)GlcNAc(b1-3)Gal(b1-4)GlcNAc(b1-3)Gal(b1-4)GlcNAc(b1-3)Gal(b1-4)GlcNAc(b1-3)Gal(b1-4)GlcNAc(b1-2)Man(a1-3)[Gal(b1-4)GlcNAc(b1-3)Gal(b1-4)GlcNAc(b1-3)Gal(b1-4)GlcNAc(b1-3)Gal(b1-4)GlcNAc(b1-3)Gal(b1-4)GlcNAc(b1-3)Gal(b1-4)GlcNAc(b1-2)Man(a1-6)]Man(b1-4)GlcNAc(b1-4)GlcNAc
# Procedure, shortened: as §1
# [19] = target: Gal(b1-4)GlcNAc(b1-3)Gal(b1-4)GlcNAc(b1-3)GalNAc
# Procedure, shortened: as §1
binder,measurement,setting,value
B1,glycan array binding signal (z-score),[1],0
same,glycan array binding signal (z-score),[2],-0.221
same,glycan array binding signal (z-score),[3],-0.311
same,glycan array binding signal (z-score),[4],1.94
same,glycan array binding signal (z-score),[5],-0.126
same,glycan array binding signal (z-score),[6],3.74
same,glycan array binding signal (z-score),[7],0.309
same,glycan array binding signal (z-score),[8],-0.389
same,glycan array binding signal (z-score),[9],0.466
same,glycan array binding signal (z-score),[10],-0.103
same,glycan array binding signal (z-score),[11],0.363
same,glycan array binding signal (z-score),[12],-0.084
same,glycan array binding signal (z-score),[13],0.028
same,glycan array binding signal (z-score),[14],0.165
same,glycan array binding signal (z-score),[15],-0.256
same,glycan array binding signal (z-score),[16],-0.251
same,glycan array binding signal (z-score),[17],0.046
same,glycan array binding signal (z-score),[18],-0.006
same,glycan array binding signal (z-score),[19],0.354
